Results on 31 variants are retold here after the GPR68 mutational scans of Howard et al. (2025).

The least precise scores are not listed. Two further conditions of the source, in which the scores hardly spread, are not listed. Names with del lack the residues named; names with ins carry added residues between the positions named. For part of these data: How much ogerin was present is not stated here.

B1: GPR68, Q15743 (parent)
chain: MGNITADNSSMSCTIDHTIHQTLAPVVYVTVLVVGFPANCLSLYFGYLQIKARNELGVYLCNLTVADLFYICSLPFWLQYVLQHDNWSHGDLSCQVCGILLYENIYISVGFLCCISVDRYLAVAHPFRFHQFRTLKAAVGVSVVIWAKELLTSIYFLMHEEVIEDENQHRVCFEHYPIQAWQRAINYYRFLVGFLFPICLLLASYQGILRAVRRSHGTQKSRKDQIQRLVLSTVVIFLACFLPYHVLLLVRSVWEASCDFAKGVFNAYHFSLLLTSFNCVADPVLYCFVSETTHRDLARLRGACLAFLTCSRTGRAREAYPLGAPEASGKSGAQGEEPELLTKLHPAFQTPNSPGSGGFPTGRLA

Data set [1] covers variants of B1. Put plainly: cAMP reporter score (Enrich2 score, wild type = 0); higher = more signal; HEK293T, FACS bins.
Data set [2] covers variants of B1. In words: surface expression score (Enrich2 score, wild type = 0); higher = more signal; HEK293T, FACS bins.

As to R317_E318insGSG, the cAMP reporter score in data set [1] (pH 5.5) is 0.449; in data set [1] (pH 6), -0.303; in data set [1] (pH 6, modulator: ogerin), 0.956; in data set [1] (pH 6.5, modulator: ogerin), 1.35. Moreover, the surface expression score in data set [2] was 0.822.
As to S311_T313del, the cAMP reporter score in data set [1] (pH 5.5) is -0.076; in data set [1] (pH 6, modulator: ogerin), -0.296; in data set [1] (pH 6.5, modulator: ogerin), -0.597. Further, in data set [2], the surface expression score is -0.584.
Consider G314del, for which the cAMP reporter score was 0.559 in data set [1] (pH 5.5); -0.317 in data set [1] (pH 6); 0.416 in data set [1] (pH 6, modulator: ogerin); 0.018 in data set [1] (pH 6.5, modulator: ogerin). Moreover, the surface expression score in data set [2] worked out at 1.21.
For A316_R317del the same measures were 0.418, -0.712, 0.365, 0.54 and -0.46.
For G314_R315insG the same measures were 0.43, -0.186, 0.289, -0.057 and -0.295.
For A319_Y320del, the cAMP reporter score in data set [1] (pH 5.5) came out at 0.58; in data set [1] (pH 6), 0.468; in data set [1] (pH 6, modulator: ogerin), 0.918; in data set [1] (pH 6.5, modulator: ogerin), 1.19. In data set [2], the surface expression score turned out to be 0.457.
For R315Q the same measures were 1.02, 0.852, 0.857, 0.588 and 1.46.
In the same order, the values of R315K are 0.341, 0.668, 0.347, -0.592 and 0.584.
Turning to R315Y, the cAMP reporter score in data set [1] (pH 5.5) amounted to 1.11; in data set [1] (pH 6), 0.495; in data set [1] (pH 6, modulator: ogerin), 1.44; in data set [1] (pH 6.5, modulator: ogerin), 0.627. Also, the surface expression score in data set [2] was 0.618.
For R315C the same measures were 0.111, -0.634, 0.186, -0.542 and -0.408.
In the same order, the values of R315I are -0.292, -0.959, -0.129, -0.928 and -0.043.
For R315F the same measures were 0.37, 0.563, 0.478, 0.589 and -0.669.
With R315H, the cAMP reporter score in data set [1] (pH 5.5) is 0.485; in data set [1] (pH 6), 0.191; in data set [1] (pH 6, modulator: ogerin), 0.051; in data set [1] (pH 6.5, modulator: ogerin), 0.452. Besides, the surface expression score in data set [2] was 0.14.
In the same order, the values of R315D are 0.43, -0.052, 0.924, 0.917 and 0.083.
Regarding R315W, the cAMP reporter score in data set [1] (pH 5.5) was -1.33; in data set [1] (pH 6), -1.18; in data set [1] (pH 6, modulator: ogerin), -2.01; in data set [1] (pH 6.5, modulator: ogerin) it was -1.56. Moreover, in data set [2], the surface expression score is -1.38.
In the same order, the values of R315T are 0.737, 0.624, 0.666, 0.852 and 1.27.
In the same order, the values of R315G are 0.715, -0.227, -0.003, -0.084 and 0.782.
In the case of R315V, the cAMP reporter score in data set [1] (pH 5.5) is -0.545; in data set [1] (pH 6), 0.291; in data set [1] (pH 6, modulator: ogerin) it was -0.438; in data set [1] (pH 6.5, modulator: ogerin), 1.37.
As for R315S, the cAMP reporter score in data set [1] (pH 5.5) worked out at 1.04; in data set [1] (pH 6) it was 0.306; in data set [1] (pH 6, modulator: ogerin), 0.826; in data set [1] (pH 6.5, modulator: ogerin), 0.283. Also, the surface expression score in data set [2] is 0.585.
Turning to R315N, the cAMP reporter score in data set [1] (pH 5.5) was 0.083; in data set [1] (pH 6), 0.494; in data set [1] (pH 6, modulator: ogerin), -0.113; in data set [1] (pH 6.5, modulator: ogerin) it was 1.49. Besides, the surface expression score in data set [2] came to 0.676.
As for R315M, the cAMP reporter score was -0.762 in data set [1] (pH 5.5); -0.633 in data set [1] (pH 6); -0.457 in data set [1] (pH 6, modulator: ogerin); -0.653 in data set [1] (pH 6.5, modulator: ogerin). Further, the surface expression score in data set [2] was 0.276.
With R315P, the cAMP reporter score was -0.215 in data set [1] (pH 5.5); -0.126 in data set [1] (pH 6, modulator: ogerin); -0.365 in data set [1] (pH 6.5, modulator: ogerin). For the same variant, the surface expression score in data set [2] was -0.98.
On to R315A, for which the cAMP reporter score in data set [1] (pH 5.5) was 0.976; in data set [1] (pH 6), 1.15; in data set [1] (pH 6, modulator: ogerin), 0.78; in data set [1] (pH 6.5, modulator: ogerin), 0.45. Besides, in data set [2], the surface expression score stood at 1.27.
For R315L the same measures were 0.523, 0.013, 1.09, 0.021 and 0.236.
As to R312_T313insG, the cAMP reporter score in data set [1] (pH 5.5) is 1.06; in data set [1] (pH 6, modulator: ogerin) it was 1.17; in data set [1] (pH 6.5, modulator: ogerin), 1.35. Besides, the surface expression score in data set [2] was 1.62.
As to T309_C310insGSG, the cAMP reporter score in data set [1] (pH 5.5) was 0.633; in data set [1] (pH 6), 1.26; in data set [1] (pH 6, modulator: ogerin) it was 0.771; in data set [1] (pH 6.5, modulator: ogerin), 1.54. Also, the surface expression score in data set [2] amounted to 0.39.
For R312_T313insGSG the same measures were 1.06, 1.22, 1.31, 1.14 and 1.12.
On to G314_R315del, for which the cAMP reporter score in data set [1] (pH 5.5) is 0.686; in data set [1] (pH 6, modulator: ogerin) it was 0.438; in data set [1] (pH 6.5, modulator: ogerin), -0.369. For the same variant, in data set [2], the surface expression score is -0.63.
With F307_T309del, the cAMP reporter score in data set [1] (pH 5.5) was 0.125; in data set [1] (pH 6), 0.007; in data set [1] (pH 6, modulator: ogerin), 0.097; in data set [1] (pH 6.5, modulator: ogerin), -0.876. Moreover, in data set [2], the surface expression score was -0.333.
In the same order, the values of R312_G314del are -0.171, -0.287, -0.593, 0.173 and -0.126.
In the same order, the values of T309del are -0.025, 0.049, 0.694, 0.084 and 0.054.
